Reference: PubChem BioAssay AID338 (DTP/NCI, 2004)
Toxic doses and inconclusive results are not listed. Not every entry of the source has a single result; some have several. The other results are left out here. An entry can have further records. Values given together are repeated measurements across runs, samples, wells, individuals or studies.

Tested on: BDF1 mice, P388 leukemia (terephthalanilide-resistant), survival T/C
Assay: NCI In Vivo Anticancer Drug Screen. Data for tumor model P388 Leukemia resistant to A Terephthalanilide; NSC 38280 (intraperitoneal) in B6D2F1 (BDF1) mice
Conditions: endpoint: median survival time; dose: 45.0 mg/kg/injection; schedule: Q01DX010 (ip); vehicle: saline; higher = longer survival
Experimental: The antitumor activity of compounds was measured in mice bearing transplantable tumors. Survival or tumor size were measured and the results are expressed as the measurement made in the treated group (T) divided by the measurement made in the vehicle treated control group (C). The tumor model used in this assay is P388 Leukemia resistant to A Terephthalanilide; NSC 38280 (intraperitoneal) in B6D2F1 (BDF1) mice

For `CNc1nc(Nc2ccc(C3=NCCN3)cc2)nc(Nc2ccc(C3=NCCN3)cc2)n1`, the T/C was 94 % of control and 181 % of control.
